The structures appear in SMILES notation. Screen size: about 52,000 compounds; about 1,700 (3.3%) were called active. Rule as the data show it: active = survival mostly below about 52% (no sharp cut-off); inactive = mostly above about 56%. This is one part of the list.

In this experiment the test system is Wild type. Description: growth inhibition of S. aureus wild type versus tarO mutant, primary screen, teichoic acid synthesis inhibitors, RN4220, OD600 (AID 463173). The note with it: S. aureus RN4220 wild type/DeltatarO growth, OD600, 18 h, active compounds read low, screened at 18.75 µg/mL (by protocol).
With `CCN(CC)c1ccc(NC(=O)CN2CCN(c3ccccc3OC)CC2)cc1`, the survival is inactive: 92%.
For `Nc1c(C(=O)Nc2cccc(F)c2)nnn1-c1cccc(C(F)(F)F)c1`, the survival was inactive: 70%.
As for `CCOC(=O)C(Cc1ccccc1)N1C(=O)c2ccccc2C1=O` (centres undefined), the survival was inactive: 104%.
On to `Cc1cc(C)cc(NC(=O)c2sc3nc4n(c(=O)c3c2C)N=C(c2ccccc2)CS4)c1`, for which the survival is inactive: 68%.
In the case of `Cc1ccc(CNC(=O)Cn2c(=O)cc(C)c3c(C)nn(-c4cccc(F)c4)c32)cc1`, the survival is inactive: 86%.
Regarding `Cc1ccc(C)c(N2CCN(S(=O)(=O)c3ccc(-c4cnc(C5CC5)o4)cc3)CC2)c1`, the survival was inactive: 69%.
Take `CCc1oc(C(=O)O)cc1COC`: the survival was inactive: 89%.
Take `Cc1ccccc1NC(=O)C(C)Sc1nnc(-c2ccccc2O)o1` (centres undefined): the survival was inactive: 117%.
With `O=C(Cn1ncc2c3ccccc3n(Cc3cccc(Cl)c3)c2c1=O)NCCCN1CCCCC1`, the survival was inactive: 124%.
In the case of `CCOCCCNc1nc2c(S(=O)(=O)c3ccc(CC)cc3)nnn2c2ccc(Cl)cc12`, the survival was inactive: 75%.
Consider `O=C(NCCc1ccccc1)C1CCN(Cc2cc3ccccc3n2Cc2ccccc2)CC1`, for which the survival was inactive: 71%.
Consider `COc1ccc(-c2cn3cccnc3n2)cc1NC(=O)Nc1cc(C)ccc1C`, for which the survival was inactive: 90%.
As to `Cc1ccc(NC(=O)CSc2nc(-c3cccs3)nc3cc(=O)[nH]n23)cc1C`, the survival is inactive: 93%.
For `CCOc1ccccc1CN1CCc2nc(N3CCN(C)CC3)ncc2C1`, the survival is active: -4%.
Regarding `CCOc1ccc(-c2cc(C(=O)NC(C)c3ccccc3)c3ccccc3n2)cc1` (centres undefined), the survival is inactive: 73%.
For the compound `COc1ccc(COC(=O)C2=C(C)NC(=O)CC2c2cccc(Cl)c2Cl)cc1` (centres undefined), the survival was inactive: 100%.
Under `CN1C(C(=O)c2ccccc2)=C(NC(=O)c2ccc(F)cc2)c2ccccc2S1(=O)=O` stands inactive: 102%; under `O=C(Nc1ccc(C(=O)N2CCN(c3ccccc3F)CC2)cc1)c1nsc2ccccc12`, inactive: 55%; under `CCOC(=O)N1CCc2c(sc3c2c(=O)n(-c2ccc(F)cc2)c(=O)n3CC(=O)c2ccc(Cl)cc2)C1`, inactive: 85%.
Take `CN(C)CCN(Cc1ccco1)C(=O)c1cc2c(s1)-c1ccccc1OC2`: the survival is inactive: 70%.
`COc1ccc(-c2onc(C)c2C)cc1S(=O)(=O)Nc1cccc(C#N)c1`: the survival was inactive: 131%.
Consider `O=C(NCCc1ccc(Cl)cc1)c1ccc2c(c1)nc1n2CCOC1`, for which the survival was inactive: 64%.
As to `CCNC(=S)N1CCN(C(=O)C(Cc2ccccc2)NC(C)=O)CC1` (centres undefined), the survival was inactive: 110%.
On to `CCc1ccc(NS(=O)(=O)c2ccc(-c3cc(C)no3)cc2)cc1`, for which the survival was inactive: 99%.
Take `Cc1cccc(NC(=O)C2CC(=O)NC(Nc3nc4ccccc4s3)=N2)c1` (centres undefined): the survival was inactive: 104%.
In the case of `Cc1cccc(C(=O)NC2(C(F)(F)F)N=C(c3ccccc3)N(C3CCCCC3)C2=O)c1` (centres undefined), the survival was inactive: 67%.
As for `CC(=O)C1=C(c2ccc(F)cc2)N(C(C)=O)n2c(nnc2C2CCCCC2)S1`, the survival was inactive: 78%.
Under `Cc1cccc(OCc2nnc(SCC(N)=O)o2)c1` stands inactive: 109%.
`CCOc1ccc(C(=O)NCC(c2ccc(Cl)cc2)N2CCCCC2)cc1` (centres undefined): the survival is inactive: 87%.
As to `CCCCNc1ccc(-c2nc(-c3ccccn3)no2)cc1[N+](=O)[O-]`, the survival is inactive: 82%.
Consider `COc1ccc(-c2nnn3c2nc(NCc2ccc(C)cc2)c2ccccc23)cc1`, for which the survival is inactive: 85%.
Consider `O=C1C2C3c4ccccc4C(c4ccccc43)C2C(=O)N1CCN1CCNCC1` (centres undefined), for which the survival was inactive: 113%.
On to `Cc1cc(C)c(NC(=O)C(C)n2c(=O)cc(-c3ccccc3)c3c(C)nn(C)c32)c(C)c1` (centres undefined), for which the survival was inactive: 89%.
As to `CCCNC(=O)CSc1c(CCC)cnc2c1c(=O)n(C)c(=O)n2C`, the survival is inactive: 98%.
The figure for `O=C(NCCc1csc(-c2cccnc2)n1)c1ccccc1` is inactive: 98%; for `CCOC(=O)c1cnc(N2CCN(c3cccc(C)c3C)CC2)c2ccccc12` it is inactive: 85%.
`CC(=O)Nc1ccc(NC(=O)Cc2ccccc2)cc1`: the survival is inactive: 100%.
As for `O=C(CN1C(=O)C2(SCC(=O)N2c2cccc(F)c2)c2ccccc21)NCCc1ccccc1` (centres undefined), the survival was inactive: 86%.
On to `CCN(CC)C(=O)c1cc2c(n(-c3ccc(OC)cc3)c1=O)CC(C)(C)CC2=O`, for which the survival was inactive: 110%.
The figure for `Cc1nnc2c(N3CCN(c4ccc(F)cc4)CC3)nc3ccc(C(=O)c4ccccc4)cc3n12` is inactive: 148%.
On to `Cc1ccccc1C(=O)OCc1cc(=O)n2nc(C3CCCCC3)sc2n1`, for which the survival was inactive: 51%.
For `CC1CCCCN1CCCNC(=O)CN1C(=O)CSc2ccc(S(=O)(=O)N3CCOCC3)cc21` (centres undefined), the survival was inactive: 73%.
Take `CCOC(=O)c1cc(-c2ccc(OC)c(S(=O)(=O)NCc3ccccc3Cl)c2)on1`: the survival is inactive: 79%.
With `COc1ccc(OC)c(NC(=O)Cn2ccn(-c3ccc(OC)c(OC)c3)c(=O)c2=O)c1`, the survival was inactive: 84%.
Turning to `CCc1ccc(NC(=O)Nc2ccccc2OCc2cc(=O)n3ccccc3n2)cc1`, the survival was inactive: 65%.
Take `O=C(N1CCOCC1)N1CCC(c2ccc(F)cc2)CC1`: the survival is inactive: 110%.
The figure for `COc1ccc(-c2oc3ncn4nc(COc5ccc(C)cc5)nc4c3c2-c2ccc(OC)cc2)cc1` is inactive: 97%; for `COc1ccc(CNC(=O)c2ccc(NC(=O)N3CCSc4ncccc43)cc2)cc1OC` it is inactive: 60%; for `CCOC(=O)c1c(NC(=O)CCCOc2ccc(Cl)cc2)sc2c1CCC2` it is inactive: 20%.
With `COc1ccc(OC)c(-c2noc(N3CCN(c4ccc(C(C)=O)cc4)CC3)n2)c1`, the survival is inactive: 159%.
For the compound `O=C(CN1C(=O)c2cccc3cccc1c23)Nc1ccccc1`, the survival is inactive: 115%.
In the case of `CCOC(=O)Cn1c(=O)oc2cc(S(=O)(=O)N3CCN(c4ccccc4OC)CC3)ccc21`, the survival is inactive: 81%.
With `O=C(CN1CCC(N2CCCCC2)CC1)Nc1ccc2c(c1)OCCO2`, the survival was inactive: 88%.
In the case of `O=C(NCCc1csc2nc(-c3ccccc3F)nn12)c1ccccc1C(F)(F)F`, the survival was inactive: 99%.
Take `COc1cccc(CN(C(=O)c2ccc(C(C)(C)C)cc2)C2CCS(=O)(=O)C2)c1` (centres undefined): the survival is inactive: 83%.
For the compound `OC1(c2ccccc2)CCN(Cc2ccccc2)CC1`, the survival was inactive: 113%.
Under `Cc1cc(=O)[nH]c(SCc2nnc(-c3ccccc3)o2)n1` stands inactive: 108%; under `CCOc1ccc(-c2nnc(SCC(=O)Nc3cc(F)ccc3F)o2)cc1`, inactive: 65%.
Regarding `COCCCNC(=O)c1ccc(Cn2c(=O)c3ccccc3n(Cc3ccccc3C)c2=O)cc1`, the survival is inactive: 130%.
`COc1cccc2c1Oc1nc(-c3ccccc3)nc(SCC(=O)Nc3ccccc3)c1C2`: the survival is inactive: 90%.
Under `Cc1ccccc1NC(=O)c1c(C)oc2ccc(O)c(CN3CCC(C)CC3)c12` stands inactive: 88%.
Under `CCCOc1ccc(C(=O)Nc2ccc3nn(-c4ccc(OC)c(Cl)c4)nc3c2)cc1` stands inactive: 145%; under `COc1ccc(NC(=O)c2cnn(-c3ccc(F)cc3F)c2C2CCN(C(=O)OC(C)(C)C)CC2)cc1Cl`, inactive: 71%; under `COc1ccc(CCNC(=O)c2ccc3nc(Cc4ccccc4)oc3c2)cc1OC`, inactive: 124%.
On to `Nc1nonc1-c1nc2ccccc2n1Cc1c(Cl)cccc1Cl`, for which the survival was inactive: 80%.
For `COc1ccc(N(CC(=O)NCCc2ccccc2)S(=O)(=O)c2ccc(OC)c(OC)c2)cc1`, the survival was inactive: 83%.
As for `O=C(C1CCCN(S(=O)(=O)c2cccc3nonc23)C1)N1CCN(c2ccccc2Cl)CC1` (centres undefined), the survival is inactive: 82%.
For `COc1ccc(CCn2c(=O)[nH]c3cc(C(=O)N4CCN(c5ccccc5)CC4)ccc3c2=O)cc1OC`, the survival was inactive: 102%.
As to `Cc1ccc(NC(=O)/C(C#N)=C/c2cc(C)n(-c3ccc(Br)cc3)c2C)cc1C`, the survival is inactive: 84%.
As for `CCOc1ccccc1NC(=O)n1ncc2cc(Cl)ccc21`, the survival is inactive: 106%.
With `C=CCNC(=O)CN1CCC(n2nnc3cc(C(F)(F)F)ccc32)CC1`, the survival was inactive: 95%.
The figure for `Cc1ccc(CCNC(=O)c2ccc(CS(=O)(=O)c3ccc(Cl)cc3)o2)cc1` is inactive: 135%.
Consider `COCCNC(=O)CCCN1C(=O)CCn2nc(-c3cccn3C)cc21`, for which the survival was inactive: 68%.
As for `CC1=C(c2ccc(C)cc2)S(=O)(=O)N(Cc2ccc(C(=O)Nc3ccccc3C)cc2)C1=O`, the survival was inactive: 78%.
As for `Cc1cc2ccccc2n1CCNC(=O)c1ccc(F)cc1`, the survival is inactive: 79%.
In the case of `CCN1C(=O)C2(c3ccccc31)c1c(oc3ccc(C)cc3c1=O)C(=O)N2CCCOC(C)C` (centres undefined), the survival is inactive: 84%.
The figure for `Cc1cc(O)c(C(c2ccc(Cl)cc2)N2CCN(c3ccccc3)CC2)c(=O)n1Cc1ccco1` (centres undefined) is inactive: 92%; for `Fc1ccc(-c2cn3cc(Cc4ccccc4Cl)sc3n2)cc1` it is inactive: 53%.
On to `COc1ccc(NC(=O)Cn2c(=O)oc3cc(S(=O)(=O)N4CCCCC4C)ccc32)cc1` (centres undefined), for which the survival is inactive: 60%.
For the compound `COC(=O)c1ccccc1NC(=O)CCCN1C(=O)C(c2ccccc2)Oc2cccnc21` (centres undefined), the survival is inactive: 84%.
For `O=C(c1ccccc1F)N1CCC(c2nc3c(nnn3Cc3cccc(F)c3)c(=O)[nH]2)CC1`, the survival is inactive: 83%.
Take `Cc1oc(-c2ccc(C(=O)NC(C)c3ccccc3)cc2)nc1CS(=O)(=O)c1ccccc1` (centres undefined): the survival is inactive: 80%.
As for `O=C1/C(=C/C2=Cc3ccccc3OC2)SC(=S)N1C1CCS(=O)(=O)C1` (centres undefined), the survival is inactive: 100%.
As to `CC(=O)Nc1ccc(NS(=O)(=O)c2cc(Br)cc3c2N(C(=O)C2CC2)CC3)cc1`, the survival was inactive: 73%.
In the case of `COc1cc(OC)c(NC(=O)c2cc(C(C)=O)n3ccccc23)cc1Cl`, the survival is inactive: 100%.
Under `COc1ccc(OCC(=O)N(Cc2cccc(OC)c2)C2CCS(=O)(=O)C2)cc1` (centres undefined) stands inactive: 83%; under `Clc1cccc(Cl)c1COc1ccccn1`, inactive: 110%; under `Brc1ccc(-c2noc(-c3ccccc3)n2)o1`, inactive: 88%.
Under `COCCNC(=O)CCCn1c(=O)[nH]c2ccsc2c1=O` stands inactive: 63%.

These data come from PubChem BioAssay AID463173 (ICCB-Longwood Screening Facility, Harvard Medical School, 2010).
